Laboratory results as given in patent US20230406883A1, “COMPOUNDS AND THEIR USE IN TREATMENT OF TACHYKININ RECEPTOR MEDIATED DISORDERS” (Embark Biotech ApS, priority 2020, published 2023).
At least one compound was matched to its structure with a doubt left. Numbered stars: 1 amine (or outer) side, 2 acyl side, 3 side chain; on linkers, the order of the positions; unused ones are H or OH. Square brackets hold non-standard residues; d marks the D form. Side chains are listed from the residue outwards. Peptide text beside a SMILES is read from it. * marks the point of attachment. C18 diacid = O=C(O)CCCCCCCCCCCCCCCCC(=O)*; γGlu = O=C(O)[C@H](CCC(=O)[*:2])N[*:1]; NMeL = CN[C@@H](CC(C)C)C(=O)O; Nle = CCCC[C@H](N)C(=O)O; AEEA = NCCOCCOCC(=O)O

Legend:
hNK3R = target: T1, hNK3R (Homo sapiens, UniProt P29371); test: IP3 assay (inositol trisphosphate, 3H-myoinositol) in transiently transfected COS-7 cells; type: cell-based; conditions: 0.2% ovalbumin buffer, read-out: hNK3, IP3 EC50
T1 construct: host or cells: COS-7
T1 sequence (P29371 1-465): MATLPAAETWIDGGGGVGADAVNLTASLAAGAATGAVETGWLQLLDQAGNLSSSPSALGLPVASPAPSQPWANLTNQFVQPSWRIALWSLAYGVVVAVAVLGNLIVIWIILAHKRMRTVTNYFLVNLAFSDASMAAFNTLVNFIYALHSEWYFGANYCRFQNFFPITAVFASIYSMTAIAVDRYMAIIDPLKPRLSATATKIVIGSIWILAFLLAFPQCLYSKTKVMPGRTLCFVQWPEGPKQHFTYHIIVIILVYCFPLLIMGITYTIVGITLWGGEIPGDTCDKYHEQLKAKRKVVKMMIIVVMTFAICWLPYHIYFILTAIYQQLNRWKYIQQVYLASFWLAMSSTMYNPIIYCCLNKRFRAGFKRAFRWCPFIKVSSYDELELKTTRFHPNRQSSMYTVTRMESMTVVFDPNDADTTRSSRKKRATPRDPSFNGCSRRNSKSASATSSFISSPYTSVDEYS
Procedure: (§1) Agonist-induced G-protein coupled receptor (GPCR) activation was measured by an Inositol-1,4,5-Trisphosphate [^3H] Radioreceptor Assay (IPs Assay). Assays were carried out using COS-7 cells transiently transfected by calcium phosphate transfection with a vector pcDNA3.1(+) encoding one of the indicated receptors (Genscript). Briefly, DNA mixed with CaCl2 (2 M) and TE-buffer (10 mM Tris-HCl, 1 mM EDTA, pH 7.5) was dropwise added to 2×HBS (50 mM HEPES, 280 mM NaCl, 1.5 mM NaH2PO4, pH 7.2) and incubated for 45 min at room temperature (22±2° C.). The mixture and a final concentration of 100 μM Chloroquine were added to the cells and left to incubate for 5 hours at 37° C. under standard cell culture conditions (10% CO2) before changing medium to fresh medium containing 5 μl/mL Myo-[2-^3H(N)]-inositol (labelling medium).
(§2) The IP3 assay takes advantage of the tachykinin receptors' ability to induce production of the inositol trisphosphate (IP3) second messenger upon agonist (ligand) binding on receptor expressing cells following an initial ^3H-inositol labelling period. In effect this means that production of the second messenger IP3 as a measure of receptor activity can be assessed by counting ^3H-activity.
(§3) Assay solutions used: Wash buffer (HBSS), Assay buffer (HBSS+10 mM LiCl and 0,2% w/v ovalbumin), Lysis buffer (10 mM formic acid), and SPA YSI beads (12.5 mg/ml in H2O). The assay was performed the day after transfection. Briefly, labelling medium was aspirated, and plates were washed ×1 in wash buffer before adding 100 μl assay buffer, pre-incubated for 30 min followed by 120 min incubation with agonist, both at 37° C. After incubation, plates were immediately placed on ice and the incubation medium was aspirated and 40 μl of 10 mM formic acid per well was added. Plates were incubated for at least 30 min on ice. 60 μl (1 mg/well) SPA YSI beads/well was pipetted into a solid white 96 wells plate and 35 μl of the lysis solution was transferred to the plate before covering plates with seal cover and shaking for 10 min. (max speed). Centrifuge plates and leave for 8 hours at room temperature before counting the plates in a MicroBeta plate counter (Perkin Elmer).

hNK1R = target: T2, hNK1R (Homo sapiens, UniProt P25103); test: as above; type: cell-based; conditions: 0.2% ovalbumin buffer
T2 construct: host or cells: COS-7
T2 sequence (P25103 whole entry): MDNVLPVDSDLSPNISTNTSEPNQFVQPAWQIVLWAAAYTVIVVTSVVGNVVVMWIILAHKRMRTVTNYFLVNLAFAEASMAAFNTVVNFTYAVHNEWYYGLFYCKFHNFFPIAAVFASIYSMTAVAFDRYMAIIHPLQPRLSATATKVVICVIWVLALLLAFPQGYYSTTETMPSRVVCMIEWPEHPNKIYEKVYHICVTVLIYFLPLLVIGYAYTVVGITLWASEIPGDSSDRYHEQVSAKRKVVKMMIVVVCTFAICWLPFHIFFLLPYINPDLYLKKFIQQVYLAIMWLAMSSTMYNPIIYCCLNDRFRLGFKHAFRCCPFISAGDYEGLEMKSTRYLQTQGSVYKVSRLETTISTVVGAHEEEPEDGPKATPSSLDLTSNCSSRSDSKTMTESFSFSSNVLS
Procedure: as §1, §2, §3

hNK2R [1] = target: T3, hNK2R (Homo sapiens, UniProt P21452); test: as above; type: cell-based; conditions: 0.2% ovalbumin buffer
T3 construct: host or cells: COS-7
T3 sequence (P21452 1-398): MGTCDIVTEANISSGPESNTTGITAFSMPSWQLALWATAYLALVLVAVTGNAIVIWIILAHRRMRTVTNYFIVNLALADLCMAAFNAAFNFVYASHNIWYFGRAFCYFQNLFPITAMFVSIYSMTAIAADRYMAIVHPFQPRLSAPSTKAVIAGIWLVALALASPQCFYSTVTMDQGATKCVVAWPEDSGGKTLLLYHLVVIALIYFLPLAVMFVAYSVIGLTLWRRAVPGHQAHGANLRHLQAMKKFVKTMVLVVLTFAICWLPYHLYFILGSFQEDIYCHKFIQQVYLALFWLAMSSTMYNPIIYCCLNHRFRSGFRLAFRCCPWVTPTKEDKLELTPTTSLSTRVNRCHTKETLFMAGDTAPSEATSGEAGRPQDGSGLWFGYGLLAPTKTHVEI
Procedure: as §1, §2, §3

hNK2R [2] = target: T3, hNK2R; test: 3H-NKA competitive binding on transfected COS-7 cells; conditions: competition with 3H-NKA, 4 h at 4 C
Procedure: as §1, with “Assays” for “Agonist-induced G-protein coupled receptor (GPCR) activation was measured by an Inositol-1,4,5-Trisphosphate [^3H] Radioreceptor Assay (IPs Assay). Assays”, “maintenance medium.” for “medium containing 5 μl/mL Myo-[2-^3H(N)]-inositol (labelling medium).”
The ^3H-NKA binding assay measures peptide-receptor binding by a competitive principle of receptor binding between radioactively labelled (3H) NKA (tracer) and synthesized peptide ligands on live cells expressing the receptor of interest. Assay solutions used: TKR buffer (50 mM Tris/HCl pH 7.5, 5 mM MnCl2, and 150 mM NaCl), wash buffer (TKR buffer+0.2% w/v OvAlb), binding buffer (wash buffer+0.1 mg/ml Bacitracin), and tracer solution (binding buffer+˜15000 cpm/well ^3H-tracer). The assay was performed on ice the day after transfection.
Briefly, maintenance medium was aspirated, and plates were washed ×1 in cold wash buffer before adding 100 μl cold binding buffer and placing at 4° C. to let plates cool. […]

Compound	EC50 (hNK3R)	EC50 (hNK1R)	EC50 (hNK2R [1])	EC50 (hNK2R [2])
CSCC[C@H](NC(=O)[C@H](CC(C)C)N(C)C(=O)CNC(=O)[C@@H](NC(=O)[C@H](Cc1ccccc1)NC(=O)[C@H](CCCCNC(=O)COCCOCCNC(=O)COCCOCCNC(=O)CC[C@H](NC(=O)CCCCCCCCCCCCCCCCC(=O)O)C(=O)O)NC(=O)[C@H](CC(=O)O)NC(=O)COCCOCCNC(=O)COCCOCCNC(=O)CC[C@H](NC(=O)CCCCCCCCCCCCCCCCC(=O)O)C(=O)O)C(C)C)C(N)=O [compound 302, *Asp;Lys*;Phe;Val;Gly;NmLeu;Met;NH2]	~2200 nM			
CCCC[C@H](NC(=O)[C@H](CC(C)C)N(C)C(=O)CNC(=O)[C@@H](NC(=O)[C@H](Cc1ccc(O)cc1)NC(=O)[C@H](CCCCN)NC(=O)[C@H](CC(=O)O)NC(=O)COCCOCCNC(=O)COCCOCCNC(=O)CC[C@H](NC(=O)CCCCCCCCCCCCCCCCC(=O)O)C(=O)O)[C@@H](C)CC)C(N)=O [compound 348, *Asp;Lys;Tyr;Ile(S);Gly;NmLeu;Nle;NH2] ({C18 diacid-γGlu-AEEA-AEEA}-DKYIG[NMeL][Nle]-NH2)		191 nM	3.5 nM	1400 nM
CCCC[C@H](NC(=O)[C@H](CC(C)C)N(C)C(=O)CNC(=O)[C@@H](NC(=O)[C@H](Cc1ccc(O)cc1)NC(=O)[C@H](CCCCNC(=O)CC[C@H](NC(=O)CC[C@H](NC(=O)CC[C@H](NC(=O)CCCCCCCCCCCCCCCCC(=O)O)C(=O)O)C(=O)O)C(=O)O)NC(=O)[C@@H](N)CC(=O)O)C(C)C)C(N)=O [compound 334, Asp;Lys*;Tyr;Val;Gly;NmLeu;Nle-NH2] (H-DK([γGlu-γGlu-γGlu-C18 diacid])YVG[NMeL][Nle]-NH2)	~26000 nM			
CCCC[C@H](NC(=O)[C@H](CC(C)C)NC(=O)[C@@H](CO)NC(=O)[C@@H](NC(=O)[C@H](Cc1ccc(O)cc1)NC(=O)[C@H](CCCCN)NC(=O)[C@H](CC(=O)O)NC(=O)COCCOCCNC(=O)COCCOCCNC(=O)CC[C@H](NC(=O)CCCCCCCCCCCCCCCCC(=O)O)C(=O)O)C(C)C)C(N)=O [compound 402, Asp;Lys;Tyr;Val;dSer;Leu;Nle;NH2] ({C18 diacid-γGlu-AEEA-AEEA}-DKYV[dS]L[Nle]-NH2)			15 nM	121 nM
